Assay results from publication PMC6212790.
The list shows a part of the results. At the low end of the ranking the order means little.

molecular target: T1, GST-Rok-C97-191 (UniProt O34857); experiment: protein binding microarray; conditions: Rok is a gene silencer of Bacillus subtilis; high values mean tight binding; most listed sequences are background and not binding sites; double strand, one strand shown;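 also: rank score from −0.5 (least bound) to 0.5 (best bound)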
T1 sequence: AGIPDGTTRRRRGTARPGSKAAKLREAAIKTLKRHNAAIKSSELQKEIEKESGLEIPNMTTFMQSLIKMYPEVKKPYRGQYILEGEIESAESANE

Sequence	binding signal
GAAGCAGA	0.0311 E-score
AAAACAAT	0.0544 E-score
GTTACCTA	0.147 E-score
GCTGCATA	0.00474 E-score
ACTGGTAG	0.176 E-score
CTAACTAC	0.348 E-score
AGCCTGAG	-0.28 E-score
TAAATCCA	0.133 E-score
TCTGGCCA	0.0184 E-score
CAAGTTGG	-0.149 E-score
GTGGGTTA	-0.0431 E-score
CATCGTCG	0.0297 E-score
GCCCGTAA	-0.151 E-score
ATGCTTAG	0.0314 E-score
AATCCAGA	-0.0632 E-score
GGTGTTAC	0.0806 E-score
CCGGAGCG	-0.122 E-score
CCATCCTA	-0.027 E-score
ACCCACGG	-0.16 E-score
GTAAGTTA	0.153 E-score
GCAACGAC	-0.0711 E-score
CCAATAGC	0.0307 E-score

Sequence	binding signal
ATCGCGGG	-0.147 E-score
ACCAACTG	-0.0926 E-score
AGTGGAGA	-0.134 E-score
TATGTTCA	0.164 E-score
CTGGCATA	0.0311 E-score
AAGAGCAC	-0.0613 E-score
ATACCCCC	-0.134 E-score
CCACGGGA	-0.126 E-score
AAGCCCGG	-0.207 E-score
GCTATCCC	-0.0307 E-score
AGTAAACC	0.0774 E-score
CGCCCTGC	-0.272 E-score
AGGATGTC	-0.179 E-score
CCTTTCGA	-0.357 E-score
GTTTTGAA	-0.0913 E-score
ACAGAAAT	0.145 E-score
AAACAATG	-0.00307 E-score
AATCTATG	0.135 E-score
GAAGCAGC	-0.198 E-score
ACATGACC	0.104 E-score
GAGTCCAA	0.0506 E-score
CCTAATAA	-0.00276 E-score

Sequence	binding signal
ACGGCATG	-0.193 E-score
GCCGGCAA	-0.183 E-score
CCCGGGGC	-0.368 E-score
CCAACTGA	-0.0233 E-score
ACGTCGAC	-0.13 E-score
AGTTGTCA	0.0746 E-score
AATATAGA	0.309 E-score
GATCATCA	-0.126 E-score
ACGCGAAT	-0.015 E-score
CATAAGAA	0.192 E-score
CCTATAGA	0.109 E-score
CAGTACCA	-0.12 E-score
AGCTATGC	-0.138 E-score
AGGACGGA	-0.127 E-score
AGCATGCG	-0.0582 E-score
CTTTGTAA	0.0958 E-score
ACAAACCA	0.0262 E-score
ACGTGGGC	-0.0293 E-score
GATAATGA	0.226 E-score
CAACCCGA	-0.0811 E-score
AAGGGATA	0.119 E-score
CAGCGTAC	0.0672 E-score

Sequence	binding signal
CTTTCGCA	-0.0817 E-score
ATAATAGA	0.232 E-score
GTGATAAC	0.107 E-score
CACACTGC	-0.118 E-score
CGCTCCAC	-0.137 E-score
TACTGAAA	0.00741 E-score
CGAATTGC	0.0395 E-score
TAACTCAA	0.16 E-score
CAGGGGGA	-0.311 E-score
AATTATCG	0.277 E-score
ACTTGATC	0.0308 E-score
AGGTTTTG	0.0456 E-score
CTGAGTAC	-0.142 E-score
CGGGATCC	-0.12 E-score
ATTTCAAC	0.195 E-score
AGCGGATC	-0.096 E-score
AGGGTACA	-0.0656 E-score
CATCATGA	-0.0797 E-score
GGATTCCC	-0.265 E-score
ATGATAAA	0.228 E-score
